{
  "source": "PubChem BioAssay AID1347120",
  "about": "(National Center for Advancing Translational Sciences (NCATS), 2019)",
  "note": "Out of some 390,000 compounds screened, about 930 (0.24%) were called active. The shares of active, inactive and inconclusive entries below differ from those in the screen. Calls come from the whole dose curve; as a rule, active = well fitted activation curve with a large enough effect; inconclusive = small, poorly fitted or top-dose-only effect; inactive = no such curve, though single readings can be large or run the other way. A potency beside an inconclusive call is a rough fit, not a confirmed value. Potency is the fitted concentration of half-maximal effect; tags give direction and shape of the fitted curve.",
  "data": [
    {"test": "qHTS for Suppressors of FUS Proteinopathy: Primary screen using FUS-linked yeast assay; note: nearly all actives have a fitted effect of over 55% in size;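 for growth rescue (activation): plate controls were DMSO vehicle for no effect and reference control for full effect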", "conditions": "S. cerevisiae FUS-expressing, OD600, 24 h; Potency: growth rescue; growth rescue (activation): at 76.6 µM (top of the series)", "method_in_brief": "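Read-out: OD at 600 nm after 24hr at 30C, reporting rescue of FUS-induced yeast toxicity. Cells at OD 0.005 in galactose (2%) minimal medium; compounds tested in a dilution series; CP55940 titration from 92uM final as control.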", "values": [
      {"smiles": "O=C(CN1CCN(c2nc(-c3ccccc3)cs2)CC1)Nc1ccc2c(c1)OCO2", "Potency": "inactive"},
      {"smiles": "O=C(CSc1nc2ccccc2c(=O)n1-c1ccccc1F)Nc1ccc2c(c1)CCC2", "Potency": "inconclusive: 28.2 µM [activator, single point]"},
      {"smiles": "CCOc1ccc(N2C(=O)c3cccnc3C2Nc2ccc(Cl)cc2)cc1", "note": "(stereo not given)", "Potency": "inconclusive: 31.6 µM [activator, single point]"},
      {"smiles": "Cc1ccc(Cl)cc1N1CCN(S(=O)(=O)c2c(C)[nH]c(C)c2C(=O)N2CCCCC2)CC1", "Potency": "inconclusive: 25.1 µM [activator, single point]"},
      {"smiles": "CCSc1ccccc1C(=O)n1nnc2ccccc21", "Potency": "inactive"},
      {"smiles": "CCc1ccc2oc(C(=O)N3CCN(c4ccc(OC)cc4)CC3)cc(=O)c2c1", "Potency": "inactive"},
      {"smiles": "O=[N+]([O-])c1ccc(N/N=C/c2sc(N3CCOCC3)nc2-c2ccccc2)c(S(=O)(=O)Nc2ccccc2Cl)c1", "Potency": "inactive"},
      {"smiles": "CCCCCCC(=O)Nc1nc(C)c(-c2csc(Nc3cc(Cl)ccc3OC)n2)s1", "Potency": "inconclusive: 31.6 µM [activator, partial curve, poor fit]"},
      {"smiles": "CC(=O)C1=CCC(c2ccc(Cl)cc2)N(S(=O)(=O)c2ccccc2)C1", "note": "(stereo not given)", "Potency": "inactive"},
      {"smiles": "Cc1cccc(-c2cc(NC(=O)c3ccccc3C)n(-c3ccccc3)n2)c1", "Potency": "inactive"},
      {"smiles": "CCOC(=O)c1cc2c(ccn2C)n1CC(=O)N1CCC(Cc2ccccc2)CC1", "Potency": "inconclusive: 35.5 µM [activator, partial curve]"},
      {"smiles": "CCNC(=O)C(C)Oc1ccc(Cl)cc1Cl", "note": "(stereo not given)", "Potency": "inactive"},
      {"smiles": "CN1CC(=O)N2[C@@H](C[C@]3(c4c[nH]c5ccccc45)c4ccccc4N(S(=O)(=O)c4ccccc4)[C@H]23)C1=O", "Potency": "inconclusive: 15.8 µM [activator, partial curve]"},
      {"smiles": "CCCc1c(CC)c(=N)c2ccccc2n1C", "Potency": "inactive"},
      {"smiles": "Cn1c(SCC(=O)c2ccccc2)nnc1-c1cccc(N)c1", "Potency": "inconclusive: 31.6 µM [activator, single point]"},
      {"smiles": "C=CCNc1ncnc2c1cnn2-c1ccc(OC)cc1", "growth rescue (activation)": "inconclusive: 47.5% [activator]"},
      {"smiles": "COc1ccc(C(C(=O)N(C)C2CCCC2)N(Cc2ccc(F)cc2)C(=O)c2sccc2Cl)cc1OC", "note": "(stereo not given)", "Potency": "inconclusive: 17.8 µM [activator, partial curve]"},
      {"smiles": "Cn1c(SCC(=O)NCCN2CCCCC2)nc2cccnc21", "Potency": "inactive"},
      {"smiles": "CCOCCn1ccc2c(OCC(=O)Nc3cc(C(F)(F)F)ccc3Cl)cccc2c1=O", "Potency": "inactive"},
      {"smiles": "COc1ccccc1Cn1c(CNS(=O)(=O)c2c(C)cc(C)cc2C)nc2cccnc21", "Potency": "inconclusive: 50.1 µM [activator, single point]"},
      {"smiles": "O=c1c2ccccc2nc(/C=C/c2ccccc2)n1CCc1ccccc1", "Potency": "inactive"},
      {"smiles": "Cc1c(C(=O)N2CCOCC2)oc2c1-c1nn(CC(=O)NCc3ccccc3)cc1CC2", "Potency": "inactive"},
      {"smiles": "O=C(COc1ccc(F)cc1Br)NCC1COc2ccccc2O1", "note": "(stereo not given)", "Potency": "inconclusive: 50.1 µM [activator, single point]"},
      {"smiles": "N/C(=N\\OC(=O)c1ccc(Cl)cc1Cl)c1ccncc1", "Potency": "inactive"},
      {"smiles": "CCC(C)N(C(=O)CSc1nnc(-c2cc(OC)c(OC)c(OC)c2)o1)C(C)CC", "note": "(stereo not given)", "Potency": "inconclusive: 22.4 µM [activator, partial curve, poor fit]"},
      {"smiles": "CN(C(=O)CSc1nc2ccc(NC(=O)c3ccc(F)cc3)cc2s1)c1ccccc1", "Potency": "inconclusive: 31.6 µM [activator, single point]"},
      {"smiles": "Cc1nn(-c2ccccc2)c(C)c1C(=O)OC/C(O)=C(\\C#N)c1nc2ccccc2[nH]1", "Potency": "inconclusive: 31.6 µM [activator, single point]"},
      {"smiles": "Cc1cc(=O)oc2cc(OCC(=O)NCCc3nc4ccccc4[nH]3)ccc12", "Potency": "inconclusive: 7.08 µM [activator, full curve]"},
      {"smiles": "O=C(Nc1nc(-c2cccs2)c(C(=O)C(F)(F)F)s1)c1ccccc1", "Potency": "inactive"},
      {"smiles": "CCOc1ccc(N(C(=O)c2snc(C(N)=O)c2N)C(C(=O)NCC2CCCO2)c2c[nH]c3ccccc23)cc1", "note": "(stereo not given)", "Potency": "inconclusive: 31.6 µM [activator, partial curve, poor fit]"},
      {"smiles": "O=C(CSc1nnc(C2CC2)n1Cc1ccccc1)c1ccc(S(=O)(=O)N2CCOCC2)cc1", "Potency": "inconclusive: 35.5 µM [activator, single point]"},
      {"smiles": "CC(C)Oc1cc(F)ccc1-c1cc(C(=O)NC2CCCCC2)[nH]n1", "Potency": "inactive"},
      {"smiles": "CCOc1ccc(N(CC(=O)Nc2cccc(OC)c2)S(=O)(=O)c2c(C)noc2C)cc1", "Potency": "inconclusive: 28.2 µM [activator, single point]"},
      {"smiles": "C=C1CCC2C(C)(C)[C@H](O)CC[C@@]2(C)[C@@H]1COc1cc(=O)oc2ccccc12", "note": "(stereo not given in full)", "Potency": "active: 35.5 µM"},
      {"smiles": "CCCC(=O)NC1CC(=O)N(c2ccc3c(c2)OCCO3)C1", "note": "(stereo not given)", "Potency": "inactive"},
      {"smiles": "CCOC(=O)c1sc(N)c(C#N)c1CSc1nc2ccc(OCC)cc2[nH]1", "Potency": "inconclusive: 39.8 µM [activator, single point]"},
      {"smiles": "COc1ccccc1CNC(=O)CN1C(=O)NC2(CCOc3ccccc32)C1=O", "note": "(stereo not given)", "Potency": "inactive"},
      {"smiles": "CC1C(=O)N(Cc2cn(Cc3ccco3)nn2)CCS(=O)(=O)N1Cc1ccc(-c2ccccc2Cl)cc1", "note": "(stereo not given)", "Potency": "inconclusive: 35.5 µM [activator, single point]"},
      {"smiles": "Cc1ccc(N(CC(=O)N2CC(=O)Nc3ccccc32)S(=O)(=O)c2ccc3c(c2)OCCO3)cc1", "Potency": "inconclusive: 56.2 µM [activator, single point]"},
      {"smiles": "O=C(CSc1ccc(-c2ccccn2)nn1)Nc1ccc(F)c(F)c1", "Potency": "inactive"},
      {"smiles": "O=C(CCNS(=O)(=O)c1ccc(Br)cc1)NC1CCCCC1", "Potency": "inconclusive: 11.2 µM [activator, single point]"},
      {"smiles": "CCc1nnc(NC(=O)CSc2nnc(-c3cc4ccccc4cc3O)n2CC)s1", "Potency": "inconclusive: 31.6 µM [activator, partial curve, poor fit]"},
      {"smiles": "Cc1ccc(C)c(NC(=O)CCC(=O)OC(C(=O)c2ccccc2)c2ccccc2)c1", "note": "(stereo not given)", "Potency": "inactive"},
      {"smiles": "COC[C@@H]1CCCN1c1ccc2c(c1)O[C@@H](COCc1ccccc1)CN([C@H](C)c1ccccc1)S2(=O)=O", "Potency": "inconclusive: 31.6 µM [activator, partial curve, poor fit]"},
      {"smiles": "CN(Cc1nccn1C)C(=O)c1cc(COc2cccc(C(F)(F)F)c2)on1", "Potency": "inactive"},
      {"smiles": "COC(=O)c1ccc(CSc2nc3c(c(=O)n2-c2ccc(Br)cc2)SCC3)o1", "Potency": "inconclusive: 22.4 µM [activator, partial curve, poor fit]"},
      {"smiles": "CCc1cccc2c1NC(=O)[C@]21[C@@H]2C(=O)N(Cc3ccccc3)C(=O)[C@@H]2[C@@H]2CCCN21", "Potency": "inconclusive: 28.2 µM [activator, single point]"},
      {"smiles": "O=C(CCn1nc(-c2ccccc2)c2ccccc2c1=O)NCC1CCCO1", "note": "(stereo not given)", "Potency": "inconclusive: 25.1 µM [activator, partial curve]"},
      {"smiles": "Cc1[nH]c2ccc(-c3nnc(SCC(=O)NCc4ccco4)n3Cc3ccccc3)cc2c1C", "Potency": "inconclusive: 31.6 µM [activator, single point]"},
      {"smiles": "Cn1cc(CC(=O)Nc2cccc(C#N)c2)c2ccccc21", "Potency": "inconclusive: 3.98 µM [activator, partial curve, poor fit]"},
      {"smiles": "O=C(CSc1nc2nccnc2c(=O)n1CCc1c[nH]c2ccccc12)Nc1ccccc1F", "Potency": "inactive"},
      {"smiles": "COC(=O)[C@]12C[C@H](CC(=O)NCc3ccc(OC)c(OC)c3)C(=O)N(Cc3ccc(Cl)cc3Cl)C1=C[C@H](C(C)C)O[C@@H]2C1CC1", "Potency": "active: 28.2 µM"},
      {"smiles": "O=C1C(c2ccncc2)N(CCC2=CCCCC2)C(=O)CN1C1CCCCC1", "note": "(stereo not given)", "growth rescue (activation)": "inconclusive: 29% [activator]"},
      {"smiles": "COc1ccc2nc(SCC(=O)N3CCN(c4ccc(F)cc4)CC3)c(C#N)cc2c1", "Potency": "inconclusive: 20 µM [activator, single point]"},
      {"smiles": "COc1ccc(N2CCN(C(=O)c3cc4c(-c5ccccc5F)nn(C)c4s3)CC2)cc1", "Potency": "inconclusive: 17.8 µM [activator, partial curve, poor fit]"},
      {"smiles": "O=C1N[C@H](Cc2ccccc2)COC(=O)[C@H](Cc2ccc(F)cc2)CC/C=C/C[C@@H]1CC(=O)N(CCO)Cc1ccccc1", "Potency": "inconclusive: 28.2 µM [activator, single point]"},
      {"smiles": "COCCNC(=O)C1(C)CCCN(Cc2ccc(Cl)c(Cl)c2)C1", "note": "(stereo not given)", "Potency": "inactive"},
      {"smiles": "CC(=O)NC(C)(c1ccccc1)c1nc(-c2csc3ccccc23)cs1", "note": "(stereo not given)", "Potency": "inconclusive: 31.6 µM [activator, single point]"},
      {"smiles": "O=C(O)CCC(=O)N1CCN(c2nc(-c3ccccc3)c3cc(Br)ccc3n2)CC1", "Potency": "inconclusive: 20 µM [activator, partial curve]"},
      {"smiles": "Cc1cccc(NC(=O)c2ccccc2NC(=O)C(C)(C)C)n1", "growth rescue (activation)": "inconclusive: 60.3% [activator]"},
      {"smiles": "Cc1ccc(-c2nc(C(=O)NCc3ccc(Cl)cc3)c3n2CCCCC3)cc1", "Potency": "inconclusive: 11.2 µM [activator, partial curve]"},
      {"smiles": "COC(=O)[C@]12C[C@H](CC(=O)NCc3ccc(C)o3)C(=O)N(Cc3cccc4ccccc34)C1=C[C@H](COCc1ccccc1)O[C@@H]2C", "Potency": "inconclusive: 28.2 µM [activator, partial curve, poor fit]"},
      {"smiles": "COC(=O)[C@]12C[C@H](CC(=O)NCc3cccc(C(F)(F)F)c3)C(=O)N(Cc3ccco3)C1=C[C@H](C1CCCC1)O[C@@H]2C", "Potency": "active: 4.47 µM"},
      {"smiles": "CCN(C(=O)CSc1nc2ccccc2n1CC(=O)Nc1cccc(C#N)c1)c1ccccc1", "Potency": "inconclusive: 44.7 µM [activator, single point]"},
      {"smiles": "CCCCCCCNC(=O)C1(CC2CC(c3cccc(Br)c3)=NO2)CCNCC1", "note": "(stereo not given)", "Potency": "inconclusive: 50.1 µM [activator, single point]"}
    ]}
  ]
}
